Experimental data taken from a compilation of properties of binary mixtures (doi:10.1016/j.molliq.2015.06.041).
Some of these densities may be calculated back from excess volumes.

Test: xn = mol fraction of the nth substance listed
Conditions: 100 kPa

C1CCOC1 + C1CC(=O)OC1
x1 = 1
Conditions | mass density [kg/m3]
293.15 K | 887.1
298.15 K | 881.6
303.15 K | 876.1
308.15 K | 870.6
313.15 K | 865
323.15 K | 853.8

O=C1CCCO1 + C1CCOC1
mass density [kg/m3]
Conditions | x2 = 0 | x2 = 0.1009 | x2 = 0.2003 | x2 = 0.3008 | x2 = 0.4004 | x2 = 0.4916 | x2 = 0.5991 | x2 = 0.6997 | x2 = 0.8 | x2 = 0.8997
293.15 K | 1128.7 | 1106.7 | 1082.8 | 1058.9 | – | – | 984.2 | – | 935.5 | 910.7
298.15 K | 1123.8 | 1101.8 | 1077.8 | 1053.9 | 1029.7 | 1007.6 | 979 | 955.1 | 930.2 | 905.3
303.15 K | 1118.9 | 1096.9 | 1072.9 | 1048.9 | 1024.7 | 1002.5 | 973.8 | 949.8 | 924.9 | –
308.15 K | 1114 | 1091.9 | – | 1043.9 | 1019.6 | – | 968.6 | 944.5 | 919.5 | 894.5
313.15 K | – | 1087 | 1062.9 | 1038.8 | 1014.5 | 992.2 | – | 939.2 | 914.1 | 889
318.15 K | 1104.1 | – | – | 1033.8 | – | – | 958.2 | 933.9 | 908.7 | 883.5
323.15 K | 1099.2 | – | – | 1028.7 | – | 981.9 | 952.9 | 928.6 | 903.3 | 877.9

O=C1CCCO1 + CC#N
mass density [kg/m3]
Conditions | x2 = 0 | x2 = 0.1054 | x2 = 0.1934 | x2 = 0.3007 | x2 = 0.4029 | x2 = 0.5036 | x2 = 0.6012 | x2 = 0.702 | x2 = 0.8008 | x2 = 0.8993
293.15 K | 1128.7 | 1106.8 | – | 1056.2 | 1026.5 | 994.1 | 960 | 919.4 | – | 832.5
298.15 K | 1123.8 | 1101.9 | 1080.1 | 1051.1 | 1021.5 | – | 954.8 | – | 872.8 | 827.1
303.15 K | 1118.9 | 1096.9 | – | 1046.1 | 1016.4 | 983.8 | 949.6 | 908.9 | – | 821.8
308.15 K | 1114 | – | 1070.2 | 1041.1 | 1011.3 | 978.7 | 944.4 | 903.6 | 862.1 | 816.4
313.15 K | 1109 | 1087 | – | 1036 | 1006.2 | 973.5 | 939.2 | 898.3 | – | 810.9
318.15 K | 1104.1 | 1082.1 | 1060.2 | 1031 | 1001 | 968.3 | 934 | 893 | 851.4 | 805.5
323.15 K | 1099.2 | 1077.1 | 1055.2 | 1025.9 | 995.9 | 963.1 | 928.7 | 887.7 | 846 | 800
328.15 K | 1094.3 | 1072.2 | 1050.1 | 1020.8 | 990.8 | 957.9 | 923.4 | – | 840.5 | –
333.15 K | 1089.3 | 1067.2 | – | 1015.7 | 985.6 | 952.7 | 918.1 | 876.9 | 835.1 | –

O=C1CCCO1 + COC(=O)OC
mass density [kg/m3]
Conditions | x2 = 0 | x2 = 0.1013 | x2 = 0.2013 | x2 = 0.3001 | x2 = 0.4006 | x2 = 0.5 | x2 = 0.5986 | x2 = 0.6999 | x2 = 0.7989 | x2 = 0.8995
293.15 K | 1128.7 | – | 1119.1 | 1113.9 | 1108.3 | 1102.5 | 1096.4 | 1090.3 | 1083.8 | –
298.15 K | 1123.8 | 1119.3 | 1113.9 | – | 1102.8 | 1096.8 | 1090.6 | 1084.4 | 1077.6 | –
303.15 K | 1118.9 | – | – | 1103.3 | – | 1091.2 | 1084.8 | 1078.4 | 1071.4 | 1064.3
308.15 K | 1114 | 1109.2 | 1103.5 | 1098 | 1091.9 | 1085.5 | 1079 | 1072.4 | 1065.2 | 1057.8
313.15 K | 1109 | – | – | 1092.6 | – | – | 1073.1 | 1066.3 | 1059 | 1051.4
318.15 K | 1104.1 | 1099.1 | – | 1087.3 | 1080.9 | 1074.2 | 1067.3 | 1060.3 | 1052.7 | –
323.15 K | 1099.2 | 1094 | 1088 | 1082 | 1075.4 | 1068.5 | 1061.4 | 1054.2 | 1046.5 | –
328.15 K | 1094.3 | 1089 | 1082.8 | 1076.6 | 1069.8 | – | 1055.5 | 1048.1 | 1040.1 | 1031.9
333.15 K | – | 1083.9 | 1077.6 | 1071.2 | 1064.3 | 1057.1 | 1049.6 | 1042 | 1033.8 | 1025.3

CC#N + C1CC(=O)OC1
x1 = 1
Conditions | mass density [kg/m3]
293.15 K | 782.3
298.15 K | 776.9
303.15 K | 771.5
308.15 K | 766
313.15 K | 760.5
318.15 K | 755
323.15 K | 749.4
328.15 K | 743.8
333.15 K | 738.2

COC(=O)OC + C1CC(=O)OC1
x1 = 1
Conditions | mass density [kg/m3]
293.15 K | 1069.8
298.15 K | 1063.2
303.15 K | 1056.6
308.15 K | 1050
323.15 K | 1029.8
333.15 K | 1016.2
